Results published in PubChem BioAssay AID504832 (National Center for Advancing Translational Sciences (NCATS), 2011).
Hit rate of the full screen: of about 310,000 compounds, about 18,000 (5.8%) were called active. The shares of active, inactive and inconclusive entries below differ from those in the screen. Calls follow the shape of the dose curve; as a rule, active = well fitted inhibition curve with a large enough effect; inconclusive = small, poorly fitted or top-dose-only effect, or another doubt; inactive = no such curve, though single readings can be large or run the other way. No potency is given beside an inconclusive call; the fits are too rough.

Experiment: Primary qHTS for delayed death inhibitors of the malarial parasite plastid, 48 hour incubation
Settings: P. falciparum luciferase growth in erythrocytes; series mostly up to 28.7 µM; activity change, negative = inhibition: at the top concentration
How it was run: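 Parasite viability was followed by luminescence of a genomically integrated firefly luciferase. Cultures held 0.1% parasitemia at 2% hematocrit (final), incubated under 5% CO2 at 37 C.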
% is scaled to controls: 0 for no effect and ±100 for the full control effect; potency is read from the fitted curve at half-maximal effect; tags tell the direction and shape of the fitted curve.

SMILES | Potency | activity change, negative = inhibition
CCOc1ccc(C2=Nn3c(CC)nnc3SC2)cc1 | inconclusive [inhibitor, single point] | 
O=C1C(=O)c2ccccc2C(O)=C1c1ccccc1F | inconclusive [inhibitor, partial curve] | 
Cc1ccc(NC(=O)c2ccc(S(=O)(=O)N3CCCCC3)cc2)cc1 | inconclusive [inhibitor, partial curve] | 
CCN(CC)c1ccc(/C=N/NC(=S)NCc2ccc(OC)cc2)cc1 | inconclusive [inhibitor, single point] | 
CC(C)n1cnc2cc(NCc3ccccn3)ccc21 |  | inactive: 149%
CCOC(=O)c1ccc(NC(=O)c2nc[nH]c2C(=O)NC2CCN(C(=O)OC(C)(C)C)CC2)cc1 | active: 10.4 µM | 
CSc1ncc(-c2ccc(Cl)cc2)[nH]1 |  | inactive: 255%
COc1ccccc1CNC(=O)C1CCN(C(=O)c2sccc2-n2cccc2)CC1 |  | inactive: -1.84%
COc1ccc([C@H]2CC(=O)C=C(c3cccc(Cl)c3O)C2)cc1OC | inconclusive [inhibitor, partial curve, poor fit] | 
O=c1c(Cl)c(N2CCN(c3ccccc3)CC2)cnn1C12CC3CC(CC(C3)C1)C2 | inconclusive [inhibitor, partial curve, poor fit] | 
CO/N=C/C(C#N)c1ncc(C(F)(F)F)cc1Cl (centres undefined) |  | inactive: 31.7%
CCOP(=O)(OCC)C(Nc1ccc(C(=O)O)cc1)c1ccccc1 (centres undefined) |  | inactive: -1.17%
N=c1oc2ccc3ccccc3c2cc1-c1nnc2n1CCCCC2 |  | inactive: 40.6%
N#Cc1ccc(C23CC4CC(CC(C4)C2)C3)[nH]c1=O | inconclusive [inhibitor, full curve] | 
O=C(NCC(=O)N1CC=C(c2ccccc2)CC1)c1ccccc1Br |  | inactive: -16.2%
C[C@@H](C(=O)Nc1ccc2ccccc2c1)[C@H]1C[C@]1(C)[C@H](NP(=O)(c1ccccc1)c1ccccc1)c1ccccc1 | inconclusive [inhibitor, single point] | 
COCCNC(=S)N(CCc1c(C)[nH]c2ccccc12)Cc1cccnc1 | inconclusive [inhibitor, partial curve, poor fit] | 
O=C(C1CCCN(S(=O)(=O)c2ccccc2)C1)N1CCCCC1 (centres undefined) |  | inactive: 38%
COc1ccc(CNCC(O)COc2ccc(C)cc2[N+](=O)[O-])cc1 (centres undefined) | inconclusive [inhibitor, single point] | 
CCOC(=O)CCc1c(C)c2ccc3c(c2oc1=O)CN(CCCO)CO3 | inconclusive [inhibitor, full curve, poor fit] | 
Cc1c(C(=O)NCCSCc2c(F)cccc2Cl)cnn1-c1ccc(F)cc1 | inconclusive [inhibitor, partial curve, poor fit] | 
Cc1[nH]cnc1C(=O)N/N=C/c1ccc([N+](=O)[O-])s1 | inconclusive [inhibitor, partial curve, poor fit] | 
O=C(c1cccc(C(F)(F)F)c1)N1CCCCCC1 |  | inactive: 22.8%

SMILES | Potency | activity change, negative = inhibition
Cc1nn2c(CN(C(=O)COc3ccccc3)c3ccccc3)nnc2c2ccccc12 | inconclusive [inhibitor, single point] | 
Nc1[nH]c(N=NC(=O)c2ccc(Cl)cc2)c2ccccc12 |  | inactive: 53.6%
NC(=O)[C@@H]1CC2(CC(c3cccc(NC(=O)COc4ccc(Cl)cc4)c3)=NO2)CN1C(=O)COc1ccc(Cl)cc1 (some centres undefined) | inconclusive [inhibitor, single point] | 
Cc1ccc(Nc2nc(N)nc(CN3CCN(Cc4ccc5c(c4)OCO5)CC3)n2)cc1C | inconclusive [inhibitor, partial curve] | 
CN(C)S(=O)(=O)c1ccc(NC(=O)CCNC(=O)c2ccc([N+](=O)[O-])cc2)cc1 | inconclusive [inhibitor, single point] | 
Cc1ccc(NC(=O)NNC(=O)Cn2nc(-c3ccccc3)c(-c3ccccc3)c(C#N)c2=O)cc1 | inconclusive [inhibitor, single point] | 
CCC(=O)N(c1ccc(C(=O)O)cc1)c1nc(-c2ccc(OC)cc2)c(C)s1 | inconclusive [inhibitor, partial curve, poor fit] | 
Cc1ccc2nc(Cl)c(/C=N/NC(=O)[C@H]3C[C@@H]3c3ccccc3)cc2c1 | inconclusive [inhibitor, partial curve, poor fit] | 
COc1cccc(-n2c(SCC(=O)NCc3ccco3)nnc2-c2c[nH]c3ccccc23)c1 | inconclusive [inhibitor, partial curve] | 
Cc1cc(=O)[nH]c(SCC(=O)Nc2cccc(S(=O)(=O)N3CCOCC3)c2)n1 |  | inactive: -27.9%
CCc1ccc2[nH]c(=O)c(CN(Cc3ccc(OC)cc3)Cc3nnnn3CCOC)cc2c1 | active: 1.85 µM | 
Cc1ccc(C(C)C)c(OCCn2c(=O)oc3ccccc32)c1 | inconclusive [inhibitor, single point] | 
CCOC(=O)c1c(NC(=S)N2CCN(C)CC2)sc2c1CCN(C(=O)OCC)C2 | active: 13.1 µM | 
Cc1nc(C)c(-c2nnc(-c3ccc(C(C)(C)C)cc3)o2)cc1C(=O)NN | inconclusive [inhibitor, single point] | 
Cc1nn(Cc2ccccc2Cl)c(C)c1NC(=O)c1cc(-c2ccc(F)cc2)on1 |  | inactive: 0.161%
CC1CC2=C(CC1/C=N/NC(N)=S)C(C)(C)CCC2 (centres undefined) | active: 13.1 µM | 
C[C@H](NC(=O)c1nc[nH]c1C(=O)N[C@@H](CCCCNC(=O)OC(C)(C)C)C(=O)OC(C)(C)C)c1ccccc1 | active: 10.4 µM | 
Nc1nnc(N2CCCCC2)s1 | inconclusive [inhibitor, single point] | 
CCN(CC)S(=O)(=O)c1cc(C(=O)O)ccc1OC |  | inactive: 15.7%
O=C(CCCN1C(=O)c2cccc3cccc(c23)C1=O)N1CCN(c2ccccc2O)CC1 | inconclusive [inhibitor, single point] | 
COc1cccc(N2CCN(c3ccc4nnc(CCC(=O)Nc5ccc(OC)c(OC)c5)n4n3)CC2)c1 | inconclusive [inhibitor, partial curve] | 
O=C(NC1CC1)C1=C[C@H](c2ccc(C(F)(F)F)cc2)C[C@H](OCc2ccc(CO)cc2)O1 | inconclusive [inhibitor, single point] | 
CCN(CC)CCNC(=O)c1cn(CC)c2ccc(S(=O)(=O)N(C)C3CCCCC3)cc2c1=O | inconclusive [inhibitor, single point] | 

SMILES | Potency | activity change, negative = inhibition
CC(C)(C)c1ccc(C(=O)N2CCN(Cc3ccccc3)CC2)cc1 | inconclusive [inhibitor, full curve, poor fit] | 
O=C(c1ccc(S(=O)(=O)Nc2cccc(C(F)(F)F)c2)cc1)N1CCN(c2ccccc2O)CC1 | inconclusive [inhibitor, single point] | 
O=C1COc2ccc(C(=O)COC(=O)c3ccc([N+](=O)[O-])cc3Cl)cc2N1 |  | inactive: 9.71%
Cc1ccc(C)c2c1cc(C)c1nnc(SCC(=O)NCc3ccc4c(c3)OCO4)n12 | inconclusive [inhibitor, partial curve, poor fit] | 
COc1cc(/C=N/OCC(=O)NC2CCCCC2)ccc1OCc1ccccc1 |  | inactive: 15.9%
CN1C(=S)SC(C)(C)C1N(O)C(=O)Nc1ccc(Cl)cc1 (centres undefined) | inconclusive [inhibitor, full curve, poor fit] | 
Cc1nn(CCS(=O)(=O)c2ccc(Cl)cc2)c(C)c1Br | inconclusive [inhibitor, single point] | 
O=C(c1cc(C2CC2)nn1-c1ccccc1)N1CCN(S(=O)(=O)c2cccc(F)c2)CC1 | active: 8.28 µM | 
COc1cc(C(=O)Nc2ccc3c(c2)N(C(=O)CCN(C)C)c2ccccc2CC3)cc(OC)c1OC | active: 10.4 µM | 
Oc1cc(-c2ccncc2)cc2cccnc12 | inconclusive [inhibitor, single point] | 
CC1=NN(c2ccccc2)C(=O)/C1=C\c1c(C)[nH]n(-c2ccccc2)c1=O |  | inactive: -7.05%
CCO[C@@H]1OC(C(=O)Nc2ccccc2)=C[C@H](C2CC2)[C@H]1CCCO | inconclusive [inhibitor, partial curve, poor fit] | 
Cc1ccnc(NS(=O)(=O)c2ccc(NC(=O)C3C4C=CC(C4)C3C(=O)O)cc2)n1 (centres undefined) |  | inactive: 26.7%
C/C(=N\Nc1nccnc1Cl)c1ccc(F)cc1 |  | inactive: 0%
CCn1c(NC(=O)C(C)C)c(-c2cccs2)c(=O)c2ccccc21 | inconclusive [inhibitor, partial curve, poor fit] | 
Cc1ccc(C)c(OCc2cc(C(=O)N3CCNC(=O)C3)no2)c1 |  | inactive: -3.25%
Fc1ccc(NC(=S)N/N=C/c2ccc(F)c(F)c2)cc1 |  | inactive: -16.3%
Cc1cccc(Nc2nnc(SCC3CCCCO3)s2)c1C (centres undefined) | inconclusive [inhibitor, single point] | 
CC(=O)N1CCN(c2ccc(S(=O)(=O)NCCN(C(C)C)C(C)C)cc2[N+](=O)[O-])CC1 |  | inactive: -1.32%
CCOC(=O)C1=C(C)N(CC)C(=S)NC1c1ccc(Cl)cc1 (centres undefined) | inconclusive [inhibitor, single point] | 
COc1ccc(C)cc1NC(=O)CCCN1C(=O)CN(C)C1=O |  | inactive: -7.72%
CCCNC(=O)CN(C)S(=O)(=O)c1c(C)cc(C)cc1C | active: 7.38 µM | 
COc1ccc(S(=O)(=O)N2CCCCC2)cc1NC(=O)CCNC(=O)c1ccc(Br)cc1 |  | inactive: 8.72%
